Data as given in publication PMC12216098.

Biological target: Human SPT6 (wildtype) as used for ITC (human) (UniProt Q7KZ85)
Test: ITC; U1A in the syringe (150-550 μM), SPT6 construct in the cell (10-35 μM); 25 °C; SEC300 Buffer (20 mM HEPES-NaOH pH 7.5, 300 mM NaCl); one set of binding sites model

Kd: 1960 nM
Substance: Human U1A (a stretch of the chain, no sequence given) (natural protein; other documents disagree on this pair)
